Some of the results follow.
Assays:
Assay in all cases: glycan array binding signal (z-score within array); higher = stronger binding
Settings in all cases: glycan notation: IUPAC condensed, linker removed
GlcNAc(b1-3)Man = molecular target: GlcNAc(b1-3)Man
Outline: (§1)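 Glycan array binding is given as a within-array Z-score, which can be read as non-binding when negative. The arrays, 3228 of them, came from the Consortium for Functional Glycomics database and were retained only where the protein sequence was available. Z-scores were averaged across arrays of the same protein sequence at different concentrations or buffers and across linkers.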

[1] = molecular target: GlcNAc(b1-3)[GlcNAc(b1-4)][GlcNAc(b1-6)]GlcNAc
Outline: as §1

[2] = molecular target: GlcNAc(b1-3)[GlcNAc(b1-6)]Gal(b1-4)GlcNAc
Outline: as §1

[3] = molecular target: GlcNAc(b1-3)[GlcNAc(b1-6)]GalNAc
Outline: as §1

[4] = molecular target: GlcNAc(b1-4)Gal(b1-4)GlcNAc
Outline: as §1

GlcNAc(b1-4)GlcNAc = molecular target: GlcNAc(b1-4)GlcNAc
Outline: as §1

[5] = molecular target: GlcNAc(b1-4)GlcNAc(b1-4)GlcNAc
Outline: as §1

[6] = molecular target: GlcNAc(b1-4)GlcNAc(b1-4)GlcNAc(b1-4)GlcNAc(b1-4)GlcNAc
Outline: as §1

[7] = molecular target: GlcNAc(b1-4)GlcNAc(b1-4)GlcNAc(b1-4)GlcNAc(b1-4)GlcNAc(b1-4)GlcNAc
Outline: as §1

[8] = molecular target: GlcNAc(b1-4)[GlcNAc(b1-6)]GalNAc
Outline: as §1

[9] = molecular target: GlcNAc(b1-6)Gal(b1-4)GlcNAc
Outline: as §1

GlcNAc(b1-6)GalNAc = molecular target: GlcNAc(b1-6)GalNAc
Outline: as §1

GlcNAc3Prop(b1-4)GlcNAc = molecular target: GlcNAc3Prop(b1-4)GlcNAc
Outline: as §1

[10] = molecular target: GlcNAc6S(b1-3)Gal(b1-4)GlcNAc
Outline: as §1

Kdn(a2-3)Gal(b1-3)GalNAc = molecular target: Kdn(a2-3)Gal(b1-3)GalNAc
Outline: as §1

Kdn(a2-3)Gal(b1-3)GlcNAc = molecular target: Kdn(a2-3)Gal(b1-3)GlcNAc
Outline: as §1

Kdn(a2-3)Gal(b1-4)Glc = molecular target: Kdn(a2-3)Gal(b1-4)Glc
Outline: as §1

Kdn(a2-3)Gal(b1-4)GlcNAc = molecular target: Kdn(a2-3)Gal(b1-4)GlcNAc
Outline: as §1

[11] = molecular target: Kdn(a2-3)Gal(b1-4)[Fuc(a1-3)]GlcNAc
Outline: as §1

Kdn(a2-6)Gal(b1-4)GlcNAc = molecular target: Kdn(a2-6)Gal(b1-4)GlcNAc
Outline: as §1

[12] = molecular target: Man(a1-2)Man(a1-2)Man(a1-3)Man
Outline: as §1

[13] = molecular target: Man(a1-2)Man(a1-2)Man(a1-6)[Man(a1-3)]Man
Outline: as §1

Man(a1-2)Man(a1-3)Man = molecular target: Man(a1-2)Man(a1-3)Man
Outline: as §1

[14] = molecular target: Man(a1-2)Man(a1-3)[Man(a1-2)Man(a1-6)]Man
Outline: as §1

[15] = molecular target: Man(a1-2)Man(a1-3)[Man(a1-2)Man(a1-6)]Man(a1-6)[Man(a1-2)Man(a1-2)Man(a1-3)]Man
Outline: as §1

[16] = molecular target: Man(a1-2)Man(a1-3)[Man(a1-2)Man(a1-6)]Man(a1-6)[Man(a1-2)Man(a1-2)Man(a1-3)]Man(b1-4)GlcNAc(b1-4)GlcNAc
Outline: as §1

[17] = molecular target: Man(a1-2)Man(a1-3)[Man(a1-6)]Man(a1-6)[Man(a1-2)Man(a1-3)]Man(b1-4)GlcNAc(b1-4)GlcNAc
Outline: as §1

[18] = molecular target: Man(a1-2)Man(a1-6)[Man(a1-3)]Man(a1-6)[Man(a1-2)Man(a1-2)Man(a1-3)]Man
Outline: as §1

[19] = molecular target: Man(a1-2)Man(a1-6)[Man(a1-3)]Man(a1-6)[Man(a1-2)Man(a1-2)Man(a1-3)]Man(b1-4)GlcNAc(b1-4)GlcNAc
Outline: as §1

Man(a1-3)[Man(a1-6)]Man = molecular target: Man(a1-3)[Man(a1-6)]Man
Outline: as §1

[20] = molecular target: Man(a1-3)[Man(a1-6)]Man(a1-6)[Man(a1-2)Man(a1-3)]Man(b1-4)GlcNAc(b1-4)GlcNAc
Outline: as §1

[21] = molecular target: Man(a1-3)[Man(a1-6)]Man(a1-6)[Man(a1-3)]Man
Outline: as §1

[22] = molecular target: Man(a1-3)[Man(a1-6)]Man(a1-6)[Man(a1-3)]Man(b1-4)GlcNAc(b1-4)GlcNAc
Outline: as §1

[23] = molecular target: Man(a1-3)[Man(a1-6)]Man(b1-4)GlcNAc(b1-4)GlcNAc
Outline: as §1

[24] = molecular target: Man(a1-3)[Man(a1-6)]Man(b1-4)GlcNAc(b1-4)[Fuc(a1-6)]GlcNAc
Outline: as §1

Man(a1-6)Man = molecular target: Man(a1-6)Man
Outline: as §1

Man(b1-4)GlcNAc = molecular target: Man(b1-4)GlcNAc
Outline: as §1

Neu5Ac(a2-3)Gal = molecular target: Neu5Ac(a2-3)Gal
Outline: as §1

B1: RVL (Remusatia vivipara), B5LYJ9 (protein)
chain: MAKLLLFLLPAILGLLVPRSAVALGTNYLLSGQTLDTEGHLKNGDFDLVMQDDCNLVLYNGNWQSNTANNGRDCKLTLTDYGELVIKNGDGSTVWKSGAQSVKGNYAAVVHPDGRLVVLGPSVFKIDPWVRGLNSLRFRNIPFTNNLLFSGQVLYGDGRLTAKNHQLVMQGDCNLVLYGGKYGWQSNTHGNGEHCFLRLNHKGELIIKDDDFKTIWSSRSSSKQGEYVLILQDDGFGVIYGPAIFETSSKRSIAAS
GlcNAc(b1-3)Man
  glycan array binding signal (z-score): -0.227
[1]
  glycan array binding signal (z-score): 0.019
[2]
  glycan array binding signal (z-score): 0.084
[3]
  glycan array binding signal (z-score): -0.166
[4]
  glycan array binding signal (z-score): -0.178
GlcNAc(b1-4)GlcNAc
  glycan array binding signal (z-score): -0.251
[5]
  glycan array binding signal (z-score): 0.037
[6]
  glycan array binding signal (z-score): -0.343
[7]
  glycan array binding signal (z-score): -0.182
[8]
  glycan array binding signal (z-score): -0.254
[9]
  glycan array binding signal (z-score): -0.145
GlcNAc(b1-6)GalNAc
  glycan array binding signal (z-score): -0.05
GlcNAc3Prop(b1-4)GlcNAc
  glycan array binding signal (z-score): -0.202
[10]
  glycan array binding signal (z-score): -0.522
Kdn(a2-3)Gal(b1-3)GalNAc
  glycan array binding signal (z-score): -0.142
Kdn(a2-3)Gal(b1-3)GlcNAc
  glycan array binding signal (z-score): -0.206
Kdn(a2-3)Gal(b1-4)Glc
  glycan array binding signal (z-score): -0.24
Kdn(a2-3)Gal(b1-4)GlcNAc
  glycan array binding signal (z-score): -0.255
[11]
  glycan array binding signal (z-score): -0.042
Kdn(a2-6)Gal(b1-4)GlcNAc
  glycan array binding signal (z-score): -0.104
[12]
  glycan array binding signal (z-score): -0.256
[13]
  glycan array binding signal (z-score): -0.056
Man(a1-2)Man(a1-3)Man
  glycan array binding signal (z-score): -0.197
[14]
  glycan array binding signal (z-score): -0.154
[15]
  glycan array binding signal (z-score): -0.058
[16]
  glycan array binding signal (z-score): 0.445
[17]
  glycan array binding signal (z-score): 0.02
[18]
  glycan array binding signal (z-score): -0.119
[19]
  glycan array binding signal (z-score): 0.028
Man(a1-3)[Man(a1-6)]Man
  glycan array binding signal (z-score): 0.23
[20]
  glycan array binding signal (z-score): 3.91
[21]
  glycan array binding signal (z-score): 0.224
[22]
  glycan array binding signal (z-score): 1.36
[23]
  glycan array binding signal (z-score): 3.8
[24]
  glycan array binding signal (z-score): 6.15
Man(a1-6)Man
  glycan array binding signal (z-score): -0.041
Man(b1-4)GlcNAc
  glycan array binding signal (z-score): -0.182
Neu5Ac(a2-3)Gal
  glycan array binding signal (z-score): -0.094
